Source: the supplement of paper PMC3334620
In all, about 33,000 sequences were measured (“E-score (-0.5 to 0.5)”: median about -0.032, highest 2% from about 0.36 on). Some of the results follow.

Molecular target: T1, Sko1 (UniProt Q02100)
T1 sequence: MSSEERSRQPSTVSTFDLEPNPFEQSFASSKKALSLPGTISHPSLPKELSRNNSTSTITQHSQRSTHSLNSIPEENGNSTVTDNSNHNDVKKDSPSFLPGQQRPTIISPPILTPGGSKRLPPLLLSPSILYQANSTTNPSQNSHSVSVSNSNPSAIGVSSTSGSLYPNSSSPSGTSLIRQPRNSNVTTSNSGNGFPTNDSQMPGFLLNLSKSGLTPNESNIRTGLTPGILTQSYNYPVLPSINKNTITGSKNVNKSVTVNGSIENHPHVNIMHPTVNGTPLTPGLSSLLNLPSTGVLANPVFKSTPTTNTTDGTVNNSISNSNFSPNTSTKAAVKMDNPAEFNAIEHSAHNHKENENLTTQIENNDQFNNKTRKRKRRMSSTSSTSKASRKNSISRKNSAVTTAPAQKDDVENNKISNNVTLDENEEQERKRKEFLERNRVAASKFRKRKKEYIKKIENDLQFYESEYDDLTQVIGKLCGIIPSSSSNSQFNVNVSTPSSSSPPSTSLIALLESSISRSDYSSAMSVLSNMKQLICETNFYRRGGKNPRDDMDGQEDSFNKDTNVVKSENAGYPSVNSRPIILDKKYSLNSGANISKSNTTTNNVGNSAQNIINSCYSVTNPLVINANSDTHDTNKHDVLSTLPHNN
Test: PBM E-score (8-mer binding enrichment) (E-score (-0.5 to 0.5)); higher = stronger / more preferred TF binding; most listed sequences are background and not binding sites
Conditions: protein concentration: 200 nM; construct: GST-full length
Outline: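 PURExpress in vitro transcription/translation supplied GST-tagged yeast transcription factors, either full-length or DNA-binding domain. Applied at about 100-200 nM to universal all-10-mer Agilent arrays double-stranded by primer extension, the bound protein was detected with fluorescent anti-GST. E-scores, modified Wilcoxon-Mann-Whitney statistics, were given by the Universal PBM Analysis Suite to ungapped eight-base words pooled with their reverse complements after masliner normalisation.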

Sequence	PBM E-score
ACTTTTCA	0.0528
AGCACACG	0.134
AAAATAAC	0.0938
CACGTGAA	0.319
CGGACATC	-0.128
CGCCGAAA	-0.047
TATGGAAA	-0.0408
CAGGGTAA	-0.0488
CAGGATCA	-0.0822
CCTACTAG	-0.0336
CGCGGACC	-0.361
ATATGGCG	0.0962
AGTGGATC	-0.157
GGTCAAGA	-0.0993
ATATCTCC	-0.152
GTGAAGAA	0.0795
ATGGACAG	-0.148
GTCGAGAA	0.107
AGGTGCAA	-0.0163
CCCCAAAG	-0.256
GGAAATCA	0.125
CAACGAAG	-0.0381
ATATGTTG	0.0568
AAGGCCAG	-0.15
AGCGTACT	-0.0878

Sequence	PBM E-score
CTACCAAG	-0.151
TACTTGAA	0.222
GCAGTACA	-0.233
AGGGCGGG	-0.163
AGACCAAT	0.0443
GGATTACA	-0.0365
CGAGAATA	0.0959
ACACACAC	0.131
AGTGATAT	0.121
CATCGGCA	-0.0364
CATCTTGG	0.0174
CGAAGTAC	0.0872
GAAGGGGC	-0.24
TGAGAACA	0.0465
ATCCGCTC	-0.316
AAACGCGA	0.118
GTCGCGTA	0.363
ATCGCCAT	0.0218
AAGCGAGT	0.0206
ACTTATAG	0.0178
ATAAAGAC	0.178
ATTAAAAG	0.13
AATAGAGG	-0.129
ATCTTACG	0.322
AAGTTTGG	0.2

Sequence	PBM E-score
CCGCCGAG	-0.312
AACTGCGG	-0.133
CGACAACG	0.219
ATTAACGA	0.196
AACATGTC	0.0288
GACAGACA	0.0697
ATTATCTG	0.128
CTGGAGGC	-0.284
CTTTGCCA	-0.0823
AGTTTATC	0.00583
ATTGCGGC	-0.158
ATTCGGGA	-0.332
CCATCGTA	0.282
CCCGGGAA	-0.303
AATTCTTA	-0.0395
ACCGCAAA	0.12
CCGTAGCA	-0.064
CATTGACG	0.412
GAACGAAA	0.00831
AGGTTAAC	0.108
GGTACTTA	-0.11
ATAGAGTC	-0.0273
ACCTTTGC	0.0497
CCAGTGGG	-0.107
CCGTCCGA	-0.301

Sequence	PBM E-score
ACACGTCC	0.214
CCGGGAAG	-0.334
AAGATCGC	0.0901
AGAGTATG	-0.111
CCAATTTC	-0.101
CGATACAG	-0.166
AAATCGCT	-0.135
CAGTAGCC	-0.275
CCCCGCTC	-0.336
ACGGTCCA	-0.199
GCTATATA	0.181
CGATCAAC	-0.0422
ACATCACG	0.314
ACCGCCCC	-0.182
TACACTAA	-0.0348
ATGAGATG	0.0776
ATGGCCTG	-0.291
AAAGAGCC	-0.0764
CTTTGCTC	-0.0818
AGCTTAAG	0.0013
TAGCTGAA	0.0416
GTCTGCAC	-0.118
AGCAAGAA	0.0698
AGTTCCCG	-0.193
CGCTTCCG	-0.0931

Sequence	PBM E-score
AACTAGGC	-0.0926
CAGTCCTA	-0.171
ACCGGACT	-0.255
CAGCGATG	-0.184
GAGCCAAC	0.0203
GAGTTGAC	-0.00674
CATCAGAA	0.24
AGGGCTGC	-0.224
GAAACCCC	-0.221
GGGTTTGA	0.0269
GTGTGTCA	0.23
ATTTCGGA	0.136
GGACACGA	-0.207
ATAACAAT	0.037
ACCCCCAC	-0.413
TAAGGGGA	-0.104
ATCATCGG	0.00617
AGAGTCAT	-0.0362
AGCGTCAA	0.166
GCGCGTTA	0.0431
ACTTCGAA	0.142
ATTGACGC	0.319
CAGTATCC	-0.163
GAACCGAC	-0.0388
CGGATAAC	-0.0495

Sequence	PBM E-score
GGGCGCAC	-0.244
CTCCCTAC	0.131
CGTGGTCA	0.0325
ACTCTGGC	-0.218
AATATTAC	0.257
ATAAAATG	0.185
AGCGGGAT	-0.0978
ATATCGCA	0.0492
AAGGACCA	-0.286
GATATGGC	-0.23
ATTTCATG	-0.0667
ATTGAGTA	0.286
CCGGGAGG	-0.268
CAGAAGGC	-0.165
CGAAATGA	0.167
CTGTTGGA	-0.137
AGACAGAA	0.0336
GGAGACTA	-0.125
ACAGATGG	-0.189
ACACGTGT	0.407
AGGATGAC	0.166
ATGGTCGA	-0.113
GAACGTCA	0.456
GGAAGAGA	-0.11
CCGCCAGC	-0.283

Sequence	PBM E-score
CGGTATTA	0.0413
ACCTCGCC	-0.347
AAAACTGG	-0.0581
TATACATA	0.319
CGAAGCAC	-0.0588
ACAGCACT	-0.0725
CGGGACAC	-0.225
CAATGTTA	0.00579
GCTTTCTA	0.124
CGTCGTTA	0.153
AACTAATT	0.182
CACACAAG	0.148
GGCGACCA	-0.283
GGCTGTTA	0.0822
GTAGAACA	-0.267
AATAGCCT	-0.093
ACAGCATG	0.0123
GCTTTAGA	-0.123
AGGATATA	0.16
CCAGTGTA	-0.162
CACACATC	-0.00525
CAAGCAAA	-0.0707
